Measurements as given in the supplement of paper PMC6206098.
± gives the uncertainty stated by the source. The sequences are guide strands of siRNAs; only the seed at positions 2 to 7 varies.

Legend:
[1] = system: 3LL; assay: cell viability relative to siNT1 control; higher = less toxic; details: concentration: 10 nM; 96 h; Mus musculus;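 also: Luminescence-based viability of cells reverse transfected in 384-well plates with lipid-complexed siRNAs built on a non-toxic 19mer backbone whose passenger strand carries 2′-O-methyl groups at positions 1 and 2, triplicates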
[2] = system: H460; assay: cell viability relative to lipid-only control; HeyA8 human ovarian and H460 human lung cancer; M565 mouse liver and 3LL mouse lung cancer; siNT1 is a non-toxic control siRNA; higher = less toxic; details: concentration: 10 nM; 96 h; Homo sapiens
[3] = system: HeyA8; assay: as above; details: concentration: 10 nM; 96 h; Homo sapiens
[4] = system: M565; assay: as above; details: concentration: 10 nM; 96 h; Mus musculus
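For cell viability relative to lipid-only control in this document: reverse lipid transfection in 384-well plates, in triplicate, of duplexes on a non-toxic 19mer backbone with passenger strand 2′-O-methylated at positions 1 and 2, luminescence viability read-out.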

| Sequence | cell viability [1] [%] | cell viability [2] [%] | cell viability [3] [%] | cell viability [4] [%] |
| --- | --- | --- | --- | --- |
| UCCAGGAACAUGUAAACCAAA | 92.9 ± 24 | 63.4 ± 8.6 | 85.1 ± 12 | 33.4 ± 6 |
| UCCACGAACAUGUAAACCAAA | 103 ± 23 | 54.6 ± 7.1 | 84.7 ± 2.5 | 58.9 ± 4.2 |
| UCGAUAAACAUGUAAACCAAA | 94.3 ± 18 | 72.3 ± 4.2 | 90.4 ± 8.6 | 82.4 ± 5.2 |
| UGAAGGAACAUGUAAACCAAA | 55 ± 7.1 | 69.9 ± 5.6 | 68.3 ± 2.9 | 36.6 ± 6 |
| UUUCUGGACAUGUAAACCAAA | 21.8 ± 4.3 | 46.2 ± 11 | 32.3 ± 6 | 29.6 ± 11 |
| UAUUUUAACAUGUAAACCAAA | 105 ± 23 | 81.5 ± 4.9 | 96.7 ± 10 | 107 ± 15 |
| UGUUCAAACAUGUAAACCAAA | 94.7 ± 8.4 | 87.3 ± 27 | 74.1 ± 6.5 | 33.5 ± 1.4 |
| UCGGACAACAUGUAAACCAAA | 96.4 ± 16 | 52.7 ± 4.8 | 83.4 ± 3.7 | 38.9 ± 3.1 |
| UCGUUGUACAUGUAAACCAAA | 79.6 ± 16 | 71.3 ± 17 | 24.1 ± 0.46 | 13.6 ± 2.7 |
| UUCCGUAACAUGUAAACCAAA | 90 ± 16 | 94 ± 10 | 93.5 ± 16 | 95.2 ± 11 |
| UCGCACUACAUGUAAACCAAA | 44.3 ± 12 | 36.4 ± 2.5 | 63.5 ± 4.3 | 19 ± 4 |
| UGGGCUAACAUGUAAACCAAA | 48.5 ± 14 | 28.2 ± 2 | 5.29 ± 1.5 | 30.5 ± 2.1 |
| UAUGGCGACAUGUAAACCAAA | 110 ± 17 | 79 ± 13 | 94.6 ± 1.1 | 79.7 ± 5.3 |
| UUAUGUGACAUGUAAACCAAA | 61.4 ± 9.4 | 38.1 ± 2.8 | 41.3 ± 9.1 | 65.2 ± 24 |
| UUUACCUACAUGUAAACCAAA | 75.4 ± 6.1 | 73.2 ± 8.3 | 91.3 ± 3.2 | 81.3 ± 7.3 |
| UCGUCAUACAUGUAAACCAAA | 92.3 ± 7.1 | 72.6 ± 23 | 66.3 ± 7.3 | 44.8 ± 9.2 |
| UGCAACAACAUGUAAACCAAA | 85.1 ± 7.2 | 65 ± 6.8 | 70.3 ± 4.1 | 70.3 ± 17 |
| UUUGCAAACAUGUAAACCAAA | 107 ± 7 | 100 ± 12 | 103 ± 2.1 | 100 ± 11 |
| UACUACUACAUGUAAACCAAA | 60.1 ± 9.1 | 66.5 ± 6.4 | 43.7 ± 7.8 | 49.8 ± 16 |
| UGUCUUGACAUGUAAACCAAA | 75.1 ± 15 | 48.8 ± 5.9 | 48.8 ± 6.9 | 35 ± 5.6 |
| UUCACUAACAUGUAAACCAAA | 105 ± 18 | 74.6 ± 11 | 101 ± 16 | 95.2 ± 12 |
| UCCGUCUACAUGUAAACCAAA | 83.7 ± 17 | 48.9 ± 9 | 57.8 ± 4.2 | 17.2 ± 0.27 |

| Sequence | cell viability [1] [%] | cell viability [2] [%] | cell viability [3] [%] | cell viability [4] [%] |
| --- | --- | --- | --- | --- |
| UGUAUUAACAUGUAAACCAAA | 95.4 ± 8.9 | 91.8 ± 11 | 93.7 ± 6.4 | 77.9 ± 18 |
| UCCCUUAACAUGUAAACCAAA | 117 ± 26 | 72 ± 7 | 88.8 ± 7.7 | 80.4 ± 15 |
| UGUUCCCACAUGUAAACCAAA | 26.1 ± 9 | 45.8 ± 0.97 | 32.9 ± 6.5 | 10.7 ± 3.2 |
| UAGCACGACAUGUAAACCAAA | 78.6 ± 13 | 58.2 ± 6.9 | 71.6 ± 12 | 48.7 ± 0.95 |
| UGAGUGUACAUGUAAACCAAA | 80.2 ± 16 | 62.7 ± 12 | 38.9 ± 6.6 | 19.7 ± 5.6 |
| UGACAUUACAUGUAAACCAAA | 92.1 ± 16 | 60.6 ± 7.2 | 66.2 ± 2.1 | 29 ± 2.4 |
| UGCCCGCACAUGUAAACCAAA | 47.1 ± 7 | 46.8 ± 1.2 | 28.3 ± 2.6 | 55.3 ± 4.4 |
| UGCUAUAACAUGUAAACCAAA | 83.3 ± 10 | 61.6 ± 7.1 | 68.9 ± 11 | 72.2 ± 1.3 |
| UCUGUGAACAUGUAAACCAAA | 103 ± 17 | 41.8 ± 4.2 | 73.3 ± 10 | 42.8 ± 9.7 |
| UGAUACUACAUGUAAACCAAA | 30.5 ± 4.3 | 31.5 ± 1.6 | 50.2 ± 1.7 | 16.5 ± 2.4 |
| UCUACAUACAUGUAAACCAAA | 98.5 ± 8.4 | 53.4 ± 2.2 | 85 ± 4.3 | 76.7 ± 11 |
| UUCUAUGACAUGUAAACCAAA | 99.6 ± 5.5 | 55.8 ± 5.5 | 91.6 ± 7.2 | 82.3 ± 9.8 |
| UACAUGAACAUGUAAACCAAA | 94.2 ± 8.3 | 60 ± 3.8 | 71.1 ± 12 | 81.9 ± 13 |
| UGGUUAUACAUGUAAACCAAA | 95 ± 9.9 | 68.7 ± 10 | 75.2 ± 8.2 | 63.9 ± 2.1 |
| UUCCCAAACAUGUAAACCAAA | 83.7 ± 19 | 97.6 ± 10 | 79.6 ± 14 | 66.9 ± 13 |
| UCGCCGCACAUGUAAACCAAA | 21.8 ± 8 | 15.6 ± 1.9 | 6.75 ± 2 | 26.1 ± 3.7 |
| UCUAGAGACAUGUAAACCAAA | 97.8 ± 11 | 50 ± 3.2 | 93 ± 16 | 78.1 ± 2.3 |
| UCGAGAUACAUGUAAACCAAA | 81.2 ± 27 | 67.9 ± 5.7 | 82.9 ± 2.5 | 54.1 ± 4.2 |
| UAGCAUGACAUGUAAACCAAA | 54.9 ± 5.3 | 70.3 ± 14 | 81.9 ± 1.9 | 21.8 ± 0.95 |
| UGUAUAGACAUGUAAACCAAA | 86.5 ± 1.7 | 70.6 ± 5.4 | 78.6 ± 3.5 | 47 ± 7.4 |
| UGCUUUUACAUGUAAACCAAA | 47.8 ± 5.2 | 41 ± 1.8 | 11.9 ± 2.2 | 58.4 ± 7.3 |
| UAAAGCCACAUGUAAACCAAA | 38.5 ± 1.3 | 57.7 ± 4.7 | 60.2 ± 5.1 | 10.6 ± 4.3 |
